These results are taken from PubChem BioAssay AID463173 (ICCB-Longwood Screening Facility, Harvard Medical School, 2010).

Hit rate of the full screen: of about 52,000 compounds, about 4,300 (8.3%) were called active. No stated cut-off is given here; in the data, active means survival mostly below about 52% (no sharp cut-off); inactive means mostly above about 56%. This is one part of the list.

The test system of the test is DeltatarO mutant. Kind of test: growth inhibition of S. aureus wild type versus tarO mutant, primary screen, teichoic acid synthesis inhibitors, RN4220, OD600 (AID 463173). The following applies: OD600, 18 h, hits give low values, screened at 18.75 µg/mL (by protocol).
Consider `CCOc1ccc(NC(=O)c2ccc3c(SCC(=O)O)c4c(nc3c2)CCC4)cc1`, for which the survival is inactive: 90%.
On to `CC1(C)Cc2[nH]c(=S)c(C#N)cc2CO1`, for which the survival is inactive: 88%.
Next, `CCOc1ccccc1-c1noc(CSc2nnc(-c3ccccc3)n2-c2cccc(C)c2)n1`: inactive: 62%; `CCOC(=O)c1c(Nc2cccc(C(=O)OC)c2)nnc(-c2ccccc2)c1-c1ccccc1`: active: 16%.
Next, `CCn1nc(C(C)C(=O)O)c2ccccc2c1=O` (stereo unspecified): inactive: 78%.
For `Cn1nc(-c2ccccc2F)c2cc(C(=O)NCc3ccc(Cl)cc3)sc21`, the survival is inactive: 87%.
For `COc1ccc(C2=C(C(C)=O)Sc3nnc(-c4ccc(C)cc4)n3N2C(C)=O)cc1OC`, the survival was inactive: 95%.
In the case of `CC(=O)N(CC(C)C)c1nnc(-c2cccnc2)s1` it was inactive: 73%; in that of `CC1CCc2c(sc(NC(=O)Cn3nnc(-c4ccc(C(F)(F)F)cc4)n3)c2C#N)C1` (stereo unspecified), inactive: 67%; in that of `COc1ccc(CC(=O)NCCc2sc(-c3ccc(Cl)cc3)nc2C)cc1OC`, inactive: 80%.
As for `OP(Oc1ccccc1)(Oc1ccccc1)=P(O)(Oc1ccccc1)Oc1ccccc1`, the survival is inactive: 97%.
Next, `COC(=O)CCC(=O)Nc1cccc2ccccc12`: inactive: 103%; `N#Cc1ccc(OC(=O)c2cc(-c3ccc(Cl)cc3)on2)cc1`: inactive: 89%.
Turning to `O=C(CCC1N=C2c3ccccc3N=C(SCC(=O)Nc3ccccc3F)N2C1=O)NCc1ccco1` (stereo unspecified), the survival was inactive: 102%.
Next, `Nc1ccc2nc(C(F)(F)F)[nH]c2c1`: inactive: 95%.
In the case of `Cc1ccc(NC(=O)CN(C)S(=O)(=O)c2ccc3c(c2)n(C)c(=O)c(=O)n3C)c(C)c1` it was inactive: 82%.
In the case of `COc1ccc(OC)c(NC(=O)CCNS(=O)(=O)c2cccc3nsnc23)c1` it was inactive: 49%.
Consider `COc1ccccc1CNc1ccc(-c2nc(-c3ccccn3)no2)cc1[N+](=O)[O-]`, for which the survival is active: 43%.
Next, `CCc1ccc(NC(=O)CSc2nc3n[nH]c(C)c3c(=N)n2-c2ccc(C)cc2)cc1`: inactive: 134%; `COc1cc(Cl)c(C)cc1NC(=O)Cn1cc(S(=O)(=O)N2CCN(c3ccccc3F)CC2)c2ccccc2c1=O`: inactive: 86%.
Next, `Cc1cccc(CCNC(=O)C2CCC(CNS(=O)(=O)c3c(C)cc(C)cc3C)CC2)c1` (stereo unspecified): inactive: 72%; `O=C(Cc1ccc(NC(=O)N2CCCCc3ccccc32)cc1)NCc1ccccc1Br`: inactive: 88%.
As for `Cc1oc(-c2ccccc2)nc1Cn1c(SCc2cccc(C(F)(F)F)c2)nc2cccnc21`, the survival was inactive: 75%.
In the case of `CCc1ccccc1Nc1nn2c(=O)c3ccc(C(=O)NC4CCC(C)CC4)cc3nc2s1` (stereo unspecified) it was inactive: 95%; in that of `CC(=O)Nc1ccc(S(=O)(=O)NCc2ccc3c(c2)CCN3C(C)=O)cc1`, inactive: 89%; in that of `COc1ccc(-n2ncc(C(=O)N3CCN(Cc4ccccc4)CC3)c2C2CCN(C(=O)OC(C)(C)C)CC2)cc1`, inactive: 90%.
Next, `CCOc1cc(C(=O)N(Cc2nc(-c3ccc(C)cc3)no2)C(C)C)cc(OCC)c1OCC`: active: 50%; `COc1cc(NC(=O)c2ccco2)c(OC)cc1NC(=O)CCC(=O)NC1CCN(Cc2ccccc2)CC1`: inactive: 78%; `CCc1cnc2c(c1SCc1c(F)cccc1Cl)c(=O)n(C)c(=O)n2C`: inactive: 87%.
With `O=C(NCC1CCCO1)C12CC3CC(CC(C3)C1)C2` (stereo unspecified), the survival was inactive: 109%.
Turning to `Cc1nn(C(=O)COc2ccc(Cl)cc2)c(C)c1Sc1ccccc1`, the survival is inactive: 87%.
In the case of `NC(=O)Cn1nnc(-c2ccccc2N)n1` it was inactive: 99%; in that of `CCOC(=O)c1ccc(NC(=O)CC2C(=O)N(c3ccccc3)C(=O)N2Cc2ccc(C)cc2)cc1` (stereo unspecified), inactive: 63%.
Turning to `COc1ccc(CCNC(=O)CCCn2c(=O)c3ccccc3n(CC(=O)Nc3cccc(C)c3)c2=O)cc1OC`, the survival is inactive: 83%.
In the case of `CCOC(=O)c1c(NC(=O)c2ccc(S(=O)(=O)N3CCC(C)CC3)cc2)sc2c1CCN(C(C)C)C2` it was inactive: 93%; in that of `CCc1ccc(CN2C(=O)c3ccccc3C2C(=O)NC2CCCCCC2)cc1` (stereo unspecified), inactive: 75%; in that of `CC(C)(C)C(=O)Nc1ccc(-c2nc3ccccc3s2)cc1`, inactive: 71%.
Regarding `CCC1C(=O)NN=C1C` (stereo unspecified), the survival is inactive: 99%.
Consider `Cc1ccc(C)c(NC(=O)c2cc(S(=O)(=O)NCCc3ccccc3)ccc2F)c1`, for which the survival is inactive: 91%.
In the case of `COc1ccc(NC(=O)C2CCN(S(=O)(=O)c3cc(-c4noc(C)n4)ccc3C)CC2)cc1` it was inactive: 108%; in that of `Cc1cccc(NC(=O)CN2C(=O)CCn3nc(-c4cccn4C)cc32)c1C`, inactive: 84%.
As to `Cc1noc(/C=C/c2ccccc2F)c1S(=O)(=O)N1CCC(C(=O)Nc2ccc(C#N)cc2)CC1`, the survival was inactive: 95%.
In the case of `CCCCNC(=O)CCn1c(=O)c2ccccc2n(Cc2cccc(Cl)c2)c1=O` it was inactive: 80%; in that of `CCOC(=O)C1CCCN(C(=O)c2ccc3c(c2)N(Cc2ccc(Cl)cc2)C(=O)c2ccccc2S3=O)C1` (stereo unspecified), inactive: 60%; in that of `Cc1ccc(-c2csc3nnc(SCC(N)=O)n23)cc1`, inactive: 101%.
On to `O=S(=O)(NCc1ccncc1)c1ccc(C2CCCCC2)cc1`, for which the survival was inactive: 79%.
In the case of `CC(C)Sc1ncnc2c1cnn2-c1ccccc1` it was inactive: 90%.
In the case of `CN(C(=O)CSc1nc2ccccc2n1CC(=O)N(C)C1CCCCC1)c1ccccc1` it was inactive: 94%.
In the case of `Cc1ccc2c(CNC3CCCC3)c(C(=O)O)n(Cc3ccc(F)cc3)c2c1` it was inactive: 103%; in that of `NC(=O)c1ccccc1NS(=O)(=O)c1ccccc1`, inactive: 97%; in that of `O=C(Cn1c(=O)c2ccccc2n2nncc12)Nc1cccc(F)c1`, inactive: 85%.
For the molecule `O=C(NCc1nc2ccccc2[nH]1)c1cccc(Cl)c1`, the survival was inactive: 63%.
Next, `CCOC(=O)c1c(C)[nH]c(C)c1S(=O)(=O)N(C)CC(=O)NCc1cccc(Br)c1`: inactive: 88%; `COc1ccc(NC(=O)NCCn2nnc3cc(S(=O)(=O)N(C)C)ccc32)cc1`: inactive: 80%.
Next, `COCCOC(=O)C1=C(C)OC(N)=C(C#N)C1c1cc2cc3c(cc2nc1Cl)OCO3` (stereo unspecified): inactive: 87%.
Next, `CC1CCN(c2ccc(-c3nc(-c4ccccc4)no3)cc2[N+](=O)[O-])CC1`: inactive: 102%.
In the case of `CCc1cccc(C)c1NC(=O)CCCN1C(=O)C(c2ccccc2)Oc2cccnc21` (stereo unspecified), the survival is inactive: 83%.
In the case of `Cc1ccccc1Cn1cnc2nc3c(cc2c1=O)CC(C)CC3` (stereo unspecified) it was active: 8%; in that of `O=C1OCC2=C1C(c1ccc3c(c1)OCO3)Sc1ccccc1N2` (stereo unspecified), inactive: 96%; in that of `Cc1cc(N2CCCCC2)nc2ccc(NC(=O)/C=C/c3ccc(OCCC(C)C)cc3)cc12`, inactive: 56%.
With `CCc1cccc(C)c1NC(=O)CCCn1nc(C)c2sc3ccccc3c2c1=O`, the survival is inactive: 86%.
Next, `O=C(CSc1nc2ccsc2c(=O)n1-c1ccc(Br)cc1)NCc1ccccc1`: inactive: 73%.
As for `O=C(C1CCN(S(=O)(=O)Cc2ccccc2)CC1)N1CCCc2ccccc21`, the survival is inactive: 88%.
In the case of `Cc1ccccc1C(=O)N1CCC(N2CCN(Cc3ccc(F)cc3)C(=O)C2=O)CC1` it was inactive: 112%; in that of `O=C(Nc1cccc(C(F)(F)F)c1)Nc1cccs1`, active: -3%.
In the case of `O=C(CSc1nnc2scc(-c3ccccc3)n12)Nc1ccc(Cl)cc1` it was inactive: 56%; in that of `CCOC(=O)c1ccc(NC(=O)c2ccc(CN3C(=O)CCn4nc(C)cc43)cc2)cc1`, inactive: 113%; in that of `CCCCN(CC)C(=O)C1CCCN(c2ncnc3c2nc2n3CCCCC2)C1` (stereo unspecified), inactive: 77%.
In the case of `CCOc1ccc(CNC(=O)CCn2c(=O)c3cccn3c3ccc(F)cc32)cc1` it was active: 45%; in that of `O=C(CSCc1cnn(-c2ccccc2)c1-n1cccc1)NCc1ccc(F)cc1`, inactive: 58%; in that of `CCc1ccc(NC(=O)CSc2ccc(-c3cccs3)nn2)cc1`, inactive: 72%.
As for `Oc1c(C(c2ccccc2Cl)N2CCN(Cc3ccccc3)CC2)sc2nc(-c3ccco3)nn12` (stereo unspecified), the survival was inactive: 78%.
Next, `Cc1noc(Cn2c(=O)c3cc4c(cc3n(CC(=O)Nc3ccccc3F)c2=O)OCO4)n1`: inactive: 77%; `CCOc1ccc2nc(N3CCC(C(=O)Nc4cc(C)ccc4C)CC3)sc2c1`: inactive: 73%; `Cc1ccc(Cl)cc1NC(=O)CCn1c(=O)c2cccn2c2cccnc21`: inactive: 78%.
Next, `COc1ccc(NC(=O)CSc2nc(-c3cccs3)cc(C(F)(F)F)n2)c(OC)c1`: inactive: 57%.
In the case of `O=C(NC1CCCCC1)c1ccc(CSc2nc3ccncc3n2Cc2ccccc2F)cc1` it was inactive: 65%; in that of `Cc1ccc(NC(=O)Cn2cc3c(n2)CCCC3)c(C)c1`, inactive: 101%; in that of `S=C(Nc1ccccc1)Nn1cnnc1`, inactive: 71%.
Take `COCCCNC(=O)c1ccc2c(c1)nc1n2CCCCC1`: the survival is inactive: 89%.
Next, `Cc1ccccc1C(=O)Nc1nc(-c2ccc(Br)cc2)ns1`: inactive: 49%; `Cc1ccc(NC(=O)CNCc2ccco2)cc1Cl`: inactive: 99%; `CC(C)NC(=O)C1CCC(Cn2c(=O)c3sccc3n(CC(=O)Nc3ccccc3)c2=O)CC1` (stereo unspecified): inactive: 74%.
Next, `CC(=O)c1cc(-c2ccccc2)n(CC(=O)NCCc2ccc(C)cc2)c1C`: inactive: 78%; `CC(C)Oc1ccc(CNC(=O)C2CCN(C(=O)N3CC(C)Oc4ccccc43)CC2)cc1` (stereo unspecified): inactive: 73%.
`CCOC(=O)c1ccc(CN(Cc2ccccc2)S(=O)(=O)c2ccc(Cl)cc2)cc1`: the survival is active: 32%.
In the case of `FC(F)(F)c1cc(-c2cccc(Br)c2)nc2ncnn12` it was inactive: 120%.
In the case of `CCOC(=O)C1CCC(CN(Cc2ccc(OC)cc2)S(=O)(=O)c2ccc(F)c(C(=O)Nc3cc(C)ccc3C)c2)CC1` (stereo unspecified) it was inactive: 75%; in that of `CCOC(=O)c1cnc2ccc(OCC)cc2c1N1CCN(c2ccccc2F)CC1`, active: 0%.
In the case of `CCOc1ccc(NC(=O)c2ccc3snnc3c2)cc1` it was inactive: 111%.
With `Cc1nc(N2CCCC2)c2c(C(=O)Nc3ccc(Br)cc3F)c(C)oc2n1`, the survival was active: 25%.
